Measured values as given in PubChem BioAssay (NCATS).
This list was built around the results that the source calls inconclusive (neither active nor inactive); the mix of calls is not that of the screen. For part of these data: A potency beside an inconclusive call is a rough fit, not a confirmed value. Activity calls are given as the source filed them. Unless noted, the call rests on the fitted dose curve; in most records, active means well fitted curve in the direction sought with a large enough effect; inconclusive means small, poorly fitted or top-dose-only effect, or another doubt; inactive means no such curve, though single readings can be large; an effect the other way counts as inactive or inconclusive.

Experiments:
[1] = qHTS of pediatric cancer cell lines to identify multiple opportunities for drug repurposing: Primary screen for DAOY cells (AID 1347090); conditions: DAOY medulloblastoma viability, CellTiter-Glo luminescence, 48 h; activity change, negative = cytotoxic: at 46 µM (top of the series); further: nearly all actives have a fitted effect of over 55% in size; further: potency means the concentration at half of the fitted maximal effect;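 on activity change, negative = cytotoxic: plate controls were DMSO for no effect and bortezomib for full effect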
Summary of the method: (§1)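 Cell viability, CellTiter-Glo luminescence; 500-1,000 cells/well, 8- or 11-point titration, 48 h compound exposure at 37 degrees C, 5% CO2. Controls: DMSO neutral, bortezomib 2.3 µM final as positive.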

[2] = qHTS of pediatric cancer cell lines to identify multiple opportunities for drug repurposing: Primary screen for A673 cells (AID 1347092); conditions: A673 Ewing sarcoma viability, CellTiter-Glo ATP luminescence, 48 h; activity change, negative = cytotoxic: at 46 µM (top of the series); further: nearly all actives have a fitted effect of over 45% in size; further: potency means the concentration at half of the fitted maximal effect
Summary of the method: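 Cells are plated, rested 5 h, dosed by pintool, incubated 48 h, then lysed with CellTiter-Glo and read by luminescence. DMSO is the neutral control; bortezomib at 2.3 uM final is the positive control.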

[3] = qHTS of pediatric cancer cell lines to identify multiple opportunities for drug repurposing: Primary screen for BT-37 cells (AID 1347094); further: potency means the concentration at half of the fitted maximal effect;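 on activity change, negative = cytotoxic: plate controls were DMSO for no effect and bortezomib for full effect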
Summary of the method: (§2)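 Readout: CellTiter-Glo luminescence, 48 h treatment. Controls DMSO (neutral) and bortezomib 2.3 µM final (positive). Potency and efficacy taken from primary-screen concentration-response curves.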

[4] = qHTS of pediatric cancer cell lines to identify multiple opportunities for drug repurposing: Primary screen for NB-EBc1 cells (AID 1347095); further: potency means the concentration at half of the fitted maximal effect;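 on activity change, negative = cytotoxic: plate controls were DMSO neutral control for no effect and bortezomib for full effect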
Summary of the method: as §2

[5] = qHTS of pediatric cancer cell lines to identify multiple opportunities for drug repurposing: Primary screen for SK-N-SH cells (AID 1347098); further: nearly all actives have a fitted effect of over 65% in size; further: potency means the concentration at half of the fitted maximal effect; on activity change, negative = cytotoxic: on the % scale 0 is the no-effect control and ±100 the full control effect
Summary of the method: (§3)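 Cells (500-1,000/well) rested 5 h, then received compounds for 48 h; metabolically active cells were measured by CellTiter-Glo luminescence. Final concentrations spanned up to 46 µM (MIPE, 11-point) or 0.59 nM-46 µM (NPC, 8-point) in primary screens, 11-point in follow-ups.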

[6] = qHTS of pediatric cancer cell lines to identify multiple opportunities for drug repurposing: Primary screen for BT-12 cells (AID 1347101); further: nearly all actives have a fitted effect of over 25% in size; further: potency means the concentration at half of the fitted maximal effect;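 on activity change, negative = cytotoxic: plate controls were DMSO for no effect and bortezomib positive control for full effect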
Summary of the method: as §3

[7] = qHTS of pediatric cancer cell lines to identify multiple opportunities for drug repurposing: Primary screen for OHS-50 cells (AID 1347103); further: nearly all actives have a fitted effect of over 40% in size; further: potency means the concentration at half of the fitted maximal effect;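 on activity change, negative = cytotoxic: plate controls were DMSO neutral control for no effect and bortezomib positive control for full effect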
Summary of the method: as §3

[8] = qHTS of pediatric cancer cell lines to identify multiple opportunities for drug repurposing: Primary screen for control Hh wild type fibroblast cells (AID 1347106); further: nearly all actives have a fitted effect of over 55% in size; further: potency means the concentration at half of the fitted maximal effect;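 on activity change, negative = cytotoxic: on the % scale 0 is the no-effect control and ±100 the full control effect; a drop in luminescence marks cytotoxicity and a rise apparent proliferation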
Summary of the method: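 Viability after 48 h compound treatment at 37C, 500-1,000 cells/well, read as ATP luminescence with CellTiter-Glo. Primary screens used 11-point (MIPE, 0.78 nM-46 µM) or 8-point (NPC, 0.59 nM-46 µM) final concentrations; follow-up screens used 11-point dilutions.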

[9] = qHTS of pediatric cancer cell lines to identify multiple opportunities for drug repurposing: Primary screen for Rh41 cells (AID 1347108); further: nearly all actives have a fitted effect of over 70% in size; further: potency means the concentration at half of the fitted maximal effect;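 on activity change, negative = cytotoxic: luminescence drop marks cytotoxic hits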
Summary of the method: as §2

[10] = qHTS to identify inhibitors of the type 1 interferon - major histocompatibility complex class I in skeletal muscle: primary screen against the NCATS Mechanism Interrogation Plate v5.0 (MIPE) Libary (AID 1347411); conditions: iHSKM cells + IFN-b, HiBiT-tagged MHC-I luminescence, 24 h; activity change, negative = inhibition: at 45.8 µM (top of the series); further: potency means the concentration at half of the fitted maximal effect; nearly all actives have a fitted effect of over 65% in size
Summary of the method: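 Cells were genome-edited human myoblasts carrying a HiBit tag on endogenous HLA-B. They were treated with IFN-beta (4.0 ng/ml) and titrated compounds (top 46 uM) for 24 hrs before lytic HiBiT detection.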

[11] = qHTS assay to identify inhibitors of the type 1 interferon - major histocompatibility complex class I in skeletal muscle: Counter screen cell viability and HiBit confirmation (AID 1347412); conditions: iHSKM muscle cells + IFN-b, HiBiT or CellTiter-Glo, 24 h; further: nearly all actives have a fitted effect of over 60% in size; further: potency means the concentration at half of the fitted maximal effect
Summary of the method: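 Myoblasts (C25cl48, HLA-B HiBiT) seeded in medium without dexamethasone, IFN-b 4 ng/ml added except unstimulated columns; 1 hr later compounds pinned (12-pt 1:3, top 46 uM final). Incubated 24 hrs, lysed 10 min, luminescence measured.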

[12] = test system: UISO; assay: qHTS assay to identify novel small-molecules to repurpose for Merkel cell carcinoma treatment (AID 1296009); conditions: MCC and control cell lines, CellTiter-Glo viability, 72 h; activity change, negative = cytotoxicity: at 46 µM (top of the series); further: nearly all actives have a fitted effect of over 60% in size; further: potency means the concentration at half of the fitted maximal effect
Summary of the method: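 After compound transfer in DMSO, plates were kept 72 hr at 37 degree celsius. Luminescent ATP signal from CellTiter-Glo served as viability measure, normalized against DMSO and no-cell controls.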

[13] = qHTS of pediatric cancer cell lines to identify multiple opportunities for drug repurposing: Primary screen for SJ-GBM2 cells (AID 1347091);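 further: plate controls were DMSO neutral control for no effect and bortezomib for full effect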
Summary of the method: as §1

[14] = Primary qHTS for small molecule stabilizers of the endoplasmic reticulum resident proteome: Secreted ER Calcium Modulated Protein (SERCaMP) assay (AID 1508630); conditions: SH-SY5Y GLuc-SERCaMP (Gaussia luciferase released on ER calcium loss) secretion, thapsigargin, luminescence; activity change, negative = inhibition: at 38.4 µM (top of the series) unless noted; further: potency means the concentration at half of the fitted maximal effect; on activity change, negative = inhibition: on the % scale 0 is the no-effect control and ±100 the full control effect
Summary of the method: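 GLuc-SERCaMP-expressing SH-SY5Y cells, pretreated 16 h with compound, are challenged with thapsigargin to empty ER calcium stores; after 4 h, coelenterazine is added directly to the medium and luminescence is imaged.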

[15] = biological target: Cytochrome P450 2D6 (Homo sapiens) (UniProt P10635); assay: Cytochrome P450 family 2 subfamily D member 6 (CYP2D6) small molecule antagonists: luciferase biochemical (cell-free) qHTS assay (AID 1645840; active means well fitted curve in the direction sought with a large enough effect in the repeat runs; inconclusive means weak or mixed curves; inactive means no such curve, though single readings can be large; an effect the other way counts as inactive or inconclusive; further: nearly all actives have a fitted effect of over 55% in size; further: potency means the concentration at half of the fitted maximal effect; on activity change, negative = inhibition: on the % scale 0 is the no-effect control and ±100 the full control effect)
Chain of UniProt P10635 (P10635 whole entry, looked up): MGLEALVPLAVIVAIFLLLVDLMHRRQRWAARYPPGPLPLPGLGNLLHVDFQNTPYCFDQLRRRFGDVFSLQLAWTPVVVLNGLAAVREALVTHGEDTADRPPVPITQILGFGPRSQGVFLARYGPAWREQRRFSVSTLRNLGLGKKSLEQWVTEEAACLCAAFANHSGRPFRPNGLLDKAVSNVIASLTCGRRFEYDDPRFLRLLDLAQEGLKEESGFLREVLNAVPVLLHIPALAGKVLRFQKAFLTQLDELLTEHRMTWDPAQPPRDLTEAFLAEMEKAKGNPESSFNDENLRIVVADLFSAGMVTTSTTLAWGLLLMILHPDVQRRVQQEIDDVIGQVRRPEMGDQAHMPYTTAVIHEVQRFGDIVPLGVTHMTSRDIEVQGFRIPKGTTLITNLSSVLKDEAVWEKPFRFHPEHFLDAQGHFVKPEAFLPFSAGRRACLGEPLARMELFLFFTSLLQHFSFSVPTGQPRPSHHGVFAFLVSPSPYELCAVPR
Summary of the method: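 P450-Glo luminescent screen: recombinant CYP2D6 enzyme–proluciferin substrate mix preincubated with compound 10 min at room temperature, then NADPH regeneration added for 1 h at room temperature. Detection reagent added for 20 min; luciferin light read as relative luminescence units.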

[16] = test system: Zika virus NS2B-NS3 protease (unlinked complex); assay: Primary screen GU Rhodamine qHTS for Zika virus inhibitors: Unlinked NS2B-NS3 protease assay (AID 1347159); further: potency means the concentration at half of the fitted maximal effect; nearly all actives have a fitted effect of over 60% in size
Summary of the method: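 Compounds, tested up to 114 microM, were incubated for 15 minutes with 25 nM unlinked NS2B-NS3 protease at pH 8.0. Cleavage of 1.5 microM Rhodamine110 substrate was then followed by fluorescence for 15 minutes.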

[17] = biological target: Cytochrome P450 2C9 (Homo sapiens) (UniProt P11712); assay: Cytochrome P450 family 2 subfamily C member 9 (CYP2C9) small molecule antagonists: luciferase biochemical (cell-free) qHTS assay (AID 1645842; active means well fitted curve in the direction sought with a large enough effect in the repeat runs; inconclusive means weak or mixed curves; inactive means no such curve, though single readings can be large; an effect the other way counts as inactive or inconclusive; further: nearly all actives have a fitted effect of over 55% in size; further: potency means the concentration at half of the fitted maximal effect; on activity change, negative = inhibition: on the % scale 0 is the no-effect control and ±100 the full control effect)
Chain of UniProt P11712 (P11712 whole entry, looked up): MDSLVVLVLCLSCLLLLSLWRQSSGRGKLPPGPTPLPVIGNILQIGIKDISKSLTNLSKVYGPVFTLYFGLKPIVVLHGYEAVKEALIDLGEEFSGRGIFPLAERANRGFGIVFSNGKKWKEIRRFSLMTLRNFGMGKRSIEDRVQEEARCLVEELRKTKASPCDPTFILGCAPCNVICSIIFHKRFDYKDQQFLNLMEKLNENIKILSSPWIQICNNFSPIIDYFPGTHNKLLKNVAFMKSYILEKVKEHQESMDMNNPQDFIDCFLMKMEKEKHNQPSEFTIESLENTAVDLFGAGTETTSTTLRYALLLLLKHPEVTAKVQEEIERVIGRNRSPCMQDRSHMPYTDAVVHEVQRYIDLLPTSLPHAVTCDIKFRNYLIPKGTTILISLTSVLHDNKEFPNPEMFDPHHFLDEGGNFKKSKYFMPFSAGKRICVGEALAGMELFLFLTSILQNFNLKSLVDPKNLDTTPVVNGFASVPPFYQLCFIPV
Summary of the method: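 Luminescence, after 20 min with luciferin detection reagent, reflected CYP2C9 turnover during a 1 h NADPH-driven reaction at 37C. Enzyme-substrate mix contained 0.4% bovine serum albumin and was preincubated with compound 10 min at room temperature.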

[18] = qHTS of pediatric cancer cell lines to identify multiple opportunities for drug repurposing: Primary screen for MG 63 (6-TG R) cells (AID 1347105); conditions: MG 63 (6-TG R) viability, CellTiter-Glo, 48 h; activity change, negative = cytotoxic: at 46 µM (top of the series); further: nearly all actives have a fitted effect of over 50% in size; further: potency means the concentration at half of the fitted maximal effect
Summary of the method: as §2

[19] = test system: Zika virus NS2B-NS3 protease (linked construct); assay: Primary screen NINDS Rhodamine qHTS for Zika virus inhibitors (AID 1347160); conditions: activity change, negative = inhibition: at 57.1 µM (top of the series) unless noted
Summary of the method: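 Percent inhibition, normalized to uninhibited and enzyme-free controls, is fitted to a 4-parameter Hill equation. Fluorescence change comes from a 15-min cleavage of 1.5 microM bis-peptide Rhodamine110 substrate by 25 nM linked NS2B-NS3 at room temperature.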

[20] = qHTS of pediatric cancer cell lines to identify multiple opportunities for drug repurposing: Primary screen for NB1643 cells (AID 1347099); further: nearly all actives have a fitted effect of over 50% in size;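 on activity change, negative = cytotoxic: plate controls were DMSO neutral control for no effect and bortezomib positive control for full effect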
Summary of the method: as §2
Tags describe the fitted curve by direction and shape.

COc1cc2c(NC3CCN(C(C)C)CC3)nc(C3CCCCC3)nc2cc1OCCCN1CCCC1
inconclusive: Potency [4] 29.6 µM [cytotoxic, single point] | Potency [10] 29.4 µM [inhibitor, partial curve, poor fit] | Potency ([11]; HiBiT) 31.3 µM [inhibitor, single point] | Potency ([11]; Viability) 27.9 µM [cytotoxic, partial curve] | Potency [12] 29.6 µM [inhibitor, single point]
active: Potency [1] 18.7 µM | Potency [2] 5.9 µM | Potency [3] 30.6 µM | Potency [5] 10.8 µM | Potency [6] 27.3 µM | Potency [7] 19.3 µM | Potency [8] 20.9 µM | Potency [9] 11.8 µM

CCCCc1ncc(/C=C(\Cc2cccs2)C(=O)O)n1Cc1ccc(C(=O)O)cc1
inactive: Potency [13] | Potency [5] | Potency [15]
inconclusive: activity change, negative = inhibition [14] -37.5% [inhibitor]

CCC(CC)C(c1ccc(Nc2nc3ccccc3s2)cc1)n1cncn1 (stereo unspecified)
inconclusive: Potency [16] 39.8 µM [inhibitor, full curve, poor fit] | Potency [10] 29.4 µM [inhibitor, partial curve, poor fit]

O=C(Nc1ccc([N+](=O)[O-])cc1)Nc1ccc([N+](=O)[O-])cc1
inactive: Potency [3] | Potency [5] | Potency [8] | Potency [9] | Potency [17] | Potency [12]
inconclusive: Potency [14] 31.6 µM [inhibitor, full curve]

COc1ccc(C(=O)c2ccccc2)c(O)c1
inconclusive: Potency [17] 38.9 µM [inhibitor, single point]
inactive: Potency [4] | Potency [6] | Potency [7] | Potency [18] | Potency [14]

CC[C@H]1CN(c2nc(N)c(C(N)=O)nc2Cl)CCN1C1CCN(Cc2ccc(Cl)cc2)CC1
active: Potency [15] 12 µM

c1cc(Nc2cc(C3CC3)[nH]n2)nc(Nc2ccc3nc[nH]c3c2)n1
inconclusive: Potency [15] 30.1 µM [inhibitor, single point]
inactive: activity change, negative = inhibition ([11]; Viability, at 45.9 µM (top of the series)) 24.1%
active: Potency [17] 9.52 µM

O=C1C[C@]23C=CCN4CCC5c6cc7c(cc6N1[C@@]5(CC2)C43)OCO7 (stereo partly specified)
inconclusive: Potency [19] 0.0224 µM [inhibitor, full curve, poor fit]

CCN1CCCC1CN (stereo unspecified)
inactive: Potency [1] | Potency [2] | Potency [20] | Potency [9] | Potency [14]

CN(C)c1ccc(C(=O)NCCCCCCC(=O)NO)cc1
inconclusive: Potency [10] 1.17 µM [inhibitor, full curve] | Potency [12] 2.35 µM [inhibitor, full curve, poor fit]
active: Potency [1] 2.35 µM | Potency [2] 1.18 µM | Potency [3] 0.153 µM | Potency [4] 0.469 µM | Potency [6] 1.53 µM | Potency [18] 2.35 µM | Potency [8] 3.72 µM | Potency [9] 0.935 µM

COC(=O)[C@H]1[C@H]2C[C@@H]3c4[nH]c5cc(OC)ccc5c4CCN3C[C@H]2C[C@@H](OC(=O)/C=C/c2ccc(O)c(OC)c2)[C@@H]1OC
inconclusive: Potency [2] 33.5 µM [cytotoxic, single point] | Potency [3] 34.7 µM [cytotoxic, single point] | Potency [4] 33.5 µM [cytotoxic, single point] | Potency [20] 23.7 µM [cytotoxic, single point] | Potency [6] 12.3 µM [cytotoxic, partial curve] | Potency [18] 33.5 µM [cytotoxic, single point] | Potency [8] 5.31 µM [cytotoxic, full curve, poor fit] | Potency [9] 15 µM [cytotoxic, single point] | Potency [14] 8.91 µM [inhibitor, partial curve, poor fit] | Potency [17] 4.9 µM [inhibitor, full curve] | activity change, negative = cytotoxicity [12] -36.4% [inhibitor]
active: Potency [5] 21.7 µM
inactive: Potency [1] | Potency [15]
